Results from PubChem BioAssay AID686971 (National Center for Advancing Translational Sciences (NCATS), 2013).
The campaign covered roughly 360,000 compounds. About 7,500 (2.1%) were called active. The inconclusive results got no clear call from the source; some entries with a clear call stand among them for comparison. Calls follow the shape of the dose curve; as a rule, active = well fitted cell-killing curve with a large enough effect; inconclusive = small, poorly fitted or top-dose-only effect, or effect the other way, or another doubt; inactive = no such curve, though single readings can be large or run the other way. Potencies of inconclusive entries are left out as doubtful fits.

Assay: qHTS for induction of synthetic lethality in tumor cells producing 2HG: qHTS for the HT-1080-IDH1KD cell line;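 as to activity, negative = toxicity: 0% = DMSO wells and -100% = cell-free medium wells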
Conditions: HT-1080 IDH1 knockdown viability, ATP luminescence, 48 h; activity, negative = toxicity: at 46.1 µM (top of the series) unless noted
Procedure, shortened: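 CellTiter-Glo luminescence after 48 h compound exposure at 37 degrees C of IDH1-knockdown HT-1080 cells in 5% FBS RPMI. %Activity scaled between DMSO wells and cell-free media wells, with curves fitted and assigned curve classes.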
Potency is read from the fitted curve at half-maximal effect; tags tell the direction and shape of the fitted curve.

| SMILES | Potency | activity, negative = toxicity |
| --- | --- | --- |
| COc1ccc(CNC(=O)C2CCN(S(=O)(=O)c3ccc4c(c3)C(C)(C)C(=O)N4C)CC2)cc1 | inactive | – |
| Cc1cc(C)nc(N/N=C/c2ccccc2OCc2ccc(Cl)cc2)n1 | inconclusive [cytotoxic, single point] | – |
| CN1CC(=O)N(CC(=O)Nc2cccc3ccccc23)C1=O | inactive | – |
| COc1cccc(/C=N/Nc2snc(SC)c2C#N)c1 | inconclusive [cytotoxic, single point] | – |
| Cc1onc(-c2ccccc2)c1C(=O)Nc1ncc([N+](=O)[O-])s1 | inconclusive [cytotoxic, partial curve, poor fit] | – |
| O=C(COc1ccc(S(=O)(=O)N2CCCC2)cc1)N1CCN(c2ccccc2F)CC1 | inactive | – |
| COC(=O)c1c(-c2c(Cl)cccc2Cl)noc1C(=O)NN | inactive | – |
| COc1ccccc1CN(C)C(=O)c1cc(S(=O)(=O)N2CCCCCC2)ccc1OC | inactive | – |
| Cc1cc(C(=O)OCC(=O)N2c3ccccc3NC(=O)C2(C)C)c(C)n1-c1ccccc1 | inconclusive [cytotoxic, single point] | – |
| NC(=O)[C@H]1CC2(CC(c3cccc(NC(=O)[C@H]4CCC(=O)N4)c3)=NO2)CN1C(=O)c1cc([N+](=O)[O-])cc([N+](=O)[O-])c1 (stereo not given in full) | inactive | – |
| O=Cc1cccnc1SCc1ccccc1 | inconclusive [cytotoxic, partial curve] | – |
| COc1ccc(S(=O)(=O)N(Cc2ccccc2)c2ccccc2C(=O)N2CCOCC2)cc1 | inconclusive [cytotoxic, single point] | – |
| O=C(Oc1ccccc1)N1CCCCC1 | inactive | – |
| CC[C@]1(c2ccccc2)C(=O)N(C(=O)OC)N1C(=O)OC | inactive | – |
| CN(C)c1ccc(C=Cc2nccc3ccccc23)cc1 | active: 20.6 µM | – |
| CC(=O)Nc1ccc(S(=O)(=O)N2CCN(Cc3nc4sc(C)c(C)c4c(=O)[nH]3)CC2)cc1 | inconclusive [cytotoxic, partial curve] | – |
| COc1ccc(-c2nc(CN3CCN(c4cc(C)nc(C)c4)CC3)c(C)o2)c2ccccc12 | active: 14.6 µM | – |
| CC(NC(=O)c1ccco1)C(c1cccs1)N1CCN(c2ccc(F)cc2)CC1 (stereo not given) | inconclusive [cytotoxic, single point] | – |
| O=C(Oc1ccccc1)c1cccc2cccnc12 | active: 3.98 µM | – |
| O=C(Oc1cccc2cccnc12)c1ccco1 | inactive | – |
| COc1cccc(OC)c1C(=O)NCCc1ccccc1 | inactive | – |
| Cc1ccc(NC(=O)COc2ccccc2C(=O)NCc2ccccc2)cc1 | inconclusive [cytotoxic, single point] | – |
| COc1cc(NC(=O)c2[nH]cnc2C(N)=O)cc(C(=O)Nc2cccc(C(F)(F)F)c2)c1 | active: 20.6 µM | – |
| Cc1ccc(NS(=O)(=O)c2cc(C(=O)Nc3cccc([N+](=O)[O-])c3)ccc2C)cc1 | inconclusive [cytotoxic, single point] | – |

| SMILES | Potency | activity, negative = toxicity |
| --- | --- | --- |
| CS(=O)(=O)Nc1ccc(N2CCN(c3ccc(C(F)(F)F)cn3)CC2)nc1 | inconclusive [cytotoxic, full curve, poor fit] | – |
| O=C(/C=C/c1ccccc1)/C=C/c1ccccc1 | inconclusive [cytotoxic, single point] | – |
| Cc1cc(C)n(-c2ccc(C(=O)Nc3ccc(S(=O)(=O)NCc4ccco4)cc3)cc2)n1 | inconclusive [cytotoxic, full curve, poor fit] | – |
| CC1=C(C(=O)Nc2ccccn2)C(c2ccc(Br)cc2)NC(=S)N1 (stereo not given) | inconclusive [cytotoxic, single point] | – |
| Cc1c(C(=O)N2CCCc3ccccc32)oc2ccc(S(=O)(=O)N3CCOCC3)cc12 | inconclusive [cytotoxic, full curve] | – |
| COCC(C)NC(=O)NC1(C(F)(F)F)Oc2ccc(Cl)cc2O1 (stereo not given) | inconclusive [cytotoxic, single point] | – |
| CC(C)(C)NC(=O)C(c1c[nH]c2ccccc12)N(C(=O)Cn1nnc(-c2ccc(F)cc2)n1)c1cccc(O)c1 (stereo not given) | inconclusive [cytotoxic, single point] | – |
| Cc1ccc(S(=O)(=O)NC(=O)NCc2ccco2)cc1 | inactive | – |
| Cc1ccc([C@@H]2C[C@H]3[C@@H](CN2S(=O)(=O)c2ccc(Cl)cc2)C(=O)C[C@@H](c2cccc4ccccc24)N3S(=O)(=O)c2ccc(C)cc2)cc1 | inactive | – |
| Cc1cccc(Nc2ncnc(N)n2)c1 | – | inconclusive: 30.3% |
| COc1cc(C(=O)Oc2cccc(/C=N/NC(=O)c3cccnc3)c2)cc(OC)c1OC | active: 18.4 µM | – |
| O=C(Nc1ncc(Cc2cccc(Cl)c2)s1)c1cccs1 | inconclusive [cytotoxic, partial curve] | – |
| O=C(NCC1COc2ccccc2O1)C1CCN(S(=O)(=O)c2ccccc2)CC1 (stereo not given) | inconclusive [rising, partial curve] | – |
| COc1ccc(OCC(=O)Nc2ccccc2-c2ccccc2)cc1 | inconclusive [cytotoxic, partial curve] | – |
| COc1cccc(NCc2cc(=O)oc3cc(C)c(C(C)C)cc23)c1 | inconclusive [cytotoxic, single point] | – |
| Cc1ccc2c(c1)[C@H]1[C@H](CO2)[C@H](c2ccccc2)[C@]2(C)C(=O)Nc3ccc(Br)cc3C(=O)N12 | inconclusive [cytotoxic, partial curve] | – |
| Cc1cc(NC(=O)CCSc2nc(-c3ccco3)cc(C(F)(F)F)n2)no1 | inconclusive [cytotoxic, partial curve, poor fit] | – |
| CCN(CC)CCCNC(=S)N1CCN(c2nc(-c3ccccc3)cs2)CC1 | active: 23.1 µM | – |
| S=C(NCc1cccs1)Nc1cccc2ccccc12 | inactive | – |
| C/C(CC(=O)Nc1ccc(N(C)C)cc1)=N\NC(=O)c1ccccc1O | inconclusive [cytotoxic, single point] | – |
| CCOCCCn1c(C)nc2c(c1=O)c1nc3ccccc3nc1n2CCC1=CCCCC1 | inconclusive [cytotoxic, single point] | – |
| CN(C)CCCNC(=O)C[C@H]1C[C@H](C(=O)N2CCCCC2)[C@@]2(C)c3[nH]c4cc(-c5ccco5)ccc4c3CCN2C1=O | inactive | – |
| COc1ccccc1CN1CCC(CNS(=O)(=O)c2cc(-c3onc(C)c3C)ccc2OC)CC1 | active: 18.4 µM | – |
| O=C(/C=C/c1ccc(Cl)cc1Cl)N(Cc1ccccc1)C1CCS(=O)(=O)C1 (stereo not given) | inconclusive [cytotoxic, single point] | – |

| SMILES | Potency | activity, negative = toxicity |
| --- | --- | --- |
| COC(=O)Nc1nc(-c2ccccc2)c(C(=O)c2ccccc2)s1 | inconclusive [cytotoxic, full curve] | – |
| CCCS(=O)(=O)N1CCN(Cc2ccc3c(c2)c2ccccc2n3CC)CC1 | inconclusive [cytotoxic, single point] | – |
| CCc1cc(-c2n[nH]c(C)c2-c2nc3ccccc3n2C)c(O)cc1O | inconclusive [cytotoxic, single point] | – |
| COc1ccc(-c2ccc(F)cc2)cc1[C@H]1[C@H]2C=CC[C@@H](C)[C@@H]2C(=O)N1Cc1ccccc1 | inconclusive [cytotoxic, single point] | – |
| COc1ccccc1N1CCN(CCCCNC(=O)c2ccc3ccccc3c2)CC1 | inconclusive [cytotoxic, partial curve] | – |
| Cc1nn(-c2ccccc2)c(Cl)c1C(=O)NCC1CCCO1 (stereo not given) | inactive | – |
| Cc1nc2ccc(C(=O)N(C)Cc3ccco3)cn2c1N(C)CC1CCCCC1 | inconclusive [cytotoxic, single point] | – |
| COc1ccc(-c2csc(Nc3ccc(Oc4ccccc4)cc3)n2)cc1 | active: 13 µM | – |
| Cc1cc2nc(/C(C#N)=C/c3ccncc3)[nH]c2cc1C | active: 23.1 µM | – |
| Cc1cccc(Nc2nc(-c3ccc(O)cc3O)cs2)n1 | inconclusive [cytotoxic, single point] | – |
| CC(C)Oc1ccc(C(CCNCc2ccc(O)cc2)c2ccccc2)cc1 (stereo not given) | inconclusive [cytotoxic, single point] | – |
| COc1ccc(-c2nc3ccc([N+](=O)[O-])cc3[nH]2)cc1 | inactive | – |
| CN1C[C@@H]2[C@@H]3C(=O)N(Cc4ccccc4)C(=O)[C@@H]3[C@](C)(C1=O)N2C(=O)c1ccc(Br)cc1 | inactive | – |
| O=C(CN1CCCCC1)Nc1cccc(Cl)c1 | inactive | – |
| CCCC(=O)NC(NC(=S)Nc1ccc(N=Nc2ccccc2)cc1)C(Cl)(Cl)Cl (stereo not given) | active: 18.4 µM | – |
| COc1ccc(-c2cc(-c3ccccc3O)[nH]n2)cc1OC | inconclusive [cytotoxic, partial curve] | – |
| CCN1CCN(c2cc(C)c3cc(NC(=S)N(C)Cc4ccccc4)ccc3n2)CC1 | inconclusive [cytotoxic, single point] | – |
| OC(c1cccc(Cl)c1)c1ncc(-c2cccc(C(F)(F)F)c2)[nH]1 (stereo not given) | inconclusive [cytotoxic, single point] | – |
| CCCOc1cc(N(CC)CC)ccc1/C=C(/C#N)c1nc2ccc(C)cc2[nH]1 | inconclusive [cytotoxic, single point] | – |
| Cc1ccc(-c2cc(C(=O)O)n[nH]2)s1 | inconclusive [rising, single point] | – |
| CCOC(=O)c1ccc(P(=O)(c2ccccc2)c2ccccc2)cc1 | inactive | – |
| O=c1c2ccccc2nc(CSc2nnnn2-c2ccccc2)n1-c1ccccc1Cl | inconclusive [cytotoxic, single point] | – |
